Experimental data reported in PubChem BioAssay AID1645887 (National Center for Advancing Translational Sciences (NCATS), 2021).
Values joined by “and” are separate entries in the source; they are usually repeats but may differ in a detail not shown here. Equal values may be shown once. The campaign covered roughly 16,000 compounds. About 40 (0.2%) were called active. Inconclusive results (about 1%) are left out. Calls follow the shape of the dose curve; as a rule, active = well fitted activation curve with a large enough effect; inconclusive = small, poorly fitted or top-dose-only effect, or another doubt; inactive = no such curve, though single readings can be large or run the other way. This is one part of the list.

target: Rap guanine nucleotide exchange factor 4 (Homo sapiens) (UniProt Q8WZA2); assay: Validation qHTS for agonist of cAMP-regulated guanine nucleotide exchange factor 4 (EPAC2); conditions: EPAC2 Rap1B BODIPY-GDP exchange, fluorescence; activation: stronger effect = higher value;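 also: exchange makes BODIPY-GDP fluorescence drop when released from Rap1B; series mostly up to about 150 µM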
Chain of UniProt Q8WZA2 (Q8WZA2 whole entry, looked up): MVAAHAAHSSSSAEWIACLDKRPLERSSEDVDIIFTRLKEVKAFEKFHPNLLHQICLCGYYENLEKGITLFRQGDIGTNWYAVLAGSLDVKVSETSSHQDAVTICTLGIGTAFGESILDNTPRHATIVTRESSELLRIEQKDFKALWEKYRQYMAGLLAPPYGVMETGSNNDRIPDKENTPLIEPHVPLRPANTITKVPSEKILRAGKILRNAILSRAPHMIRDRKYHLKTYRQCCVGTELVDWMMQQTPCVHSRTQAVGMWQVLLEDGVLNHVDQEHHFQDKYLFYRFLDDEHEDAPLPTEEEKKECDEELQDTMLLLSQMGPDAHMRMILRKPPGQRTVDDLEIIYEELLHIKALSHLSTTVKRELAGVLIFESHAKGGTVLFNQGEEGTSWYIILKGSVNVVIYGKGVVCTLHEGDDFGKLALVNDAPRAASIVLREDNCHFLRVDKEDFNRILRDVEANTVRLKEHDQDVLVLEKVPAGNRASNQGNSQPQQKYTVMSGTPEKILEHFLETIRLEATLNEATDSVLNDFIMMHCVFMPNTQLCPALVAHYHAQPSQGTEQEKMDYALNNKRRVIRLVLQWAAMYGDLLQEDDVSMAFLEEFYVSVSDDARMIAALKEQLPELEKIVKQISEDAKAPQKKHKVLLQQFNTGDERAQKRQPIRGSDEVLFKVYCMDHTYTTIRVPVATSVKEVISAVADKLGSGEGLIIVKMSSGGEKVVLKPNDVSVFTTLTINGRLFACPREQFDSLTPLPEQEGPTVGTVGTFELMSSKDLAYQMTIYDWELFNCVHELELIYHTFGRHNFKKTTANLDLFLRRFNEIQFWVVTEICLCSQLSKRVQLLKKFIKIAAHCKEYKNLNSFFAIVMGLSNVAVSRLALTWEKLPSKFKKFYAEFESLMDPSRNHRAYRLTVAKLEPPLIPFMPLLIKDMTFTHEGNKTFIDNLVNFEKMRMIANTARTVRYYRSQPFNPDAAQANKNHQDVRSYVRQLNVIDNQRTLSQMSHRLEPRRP
Method in brief: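 Fluorescent exchange assay: 100 nM EPAC2 with 250 nM RAP1B-BODIPY-GDP and 50 uM GDP; compound added, 5 min at room temperature, then read (ex 480/em 540 nm) every 5 min for 30 min. Normalized to 6.5 mM cAMP agonist control.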
% is scaled to controls: 0 for no effect and ±100 for the full control effect.

activation, inactive:
CC(=O)c1ccc(F)c(-c2cc(C)cc3c2OC(CNC(=O)c2cnc4ccccn4c2=O)C3)c1 (stereo unspecified) -25.5%, CC1(C2CCN(Cc3c[nH]c4ccccc34)CC2)NC(=O)N(CCN2CCOCC2)C1=O (stereo unspecified) -3.11%, COC(=O)C[C@H]1c2ccccc2S(=O)(=O)N1c1cccc(OC)c1 -0.673%, NC(Cc1cccc(-c2ccccc2CP(=O)(O)O)c1)C(=O)O (stereo unspecified) -26.7%, O=S(=O)(c1cccc2cnccc12)N1CCNCC1 1.51%, COc1ccccc1C1CN(Cc2cccc3c2OCO3)Cc2ccccc2O1 (stereo unspecified) -15.7%, COc1ccc(CN2CC[C@H]3C=CC[C@@H](C(=O)Nc4nccs4)[C@H]3C2=O)cc1OC -3.26%, O=C(O)Cc1cccc(-c2cc(CCCCCCc3ccc(O[C@H]4O[C@H](CO)[C@@H](O)[C@H](O)[C@@H]4O)c(-c4cccc(CC(=O)O)c4)c3)ccc2O[C@H]2O[C@H](CO)[C@@H](O)[C@H](O)[C@@H]2O)c1 -8.94%, CC(=O)N(O)CCCCCNC(=O)CCC(=O)N(O)CCCCCNC(=O)CCC(=O)N(O)CCCCCN 7.45% and 0.364%, Cc1ccc(C)c(S(=O)(=O)NCc2nc(N3CCCC3)c3cc(Cl)ccc3n2)c1 -2.61%, O=c1c(-c2ccc(Cl)cc2)nc2cnc(Nc3ccccc3)nc2n1C[C@H]1CCCO1 -9.29%, CC(C)[C@H]1COCCS(=O)(=O)N1Cc1cccc([N+](=O)[O-])c1 -19.5%, N[C@H](CO)C(=O)O 1.58% and 5.58% and -30.3%, COc1ccc(-n2c(CNC(=O)c3cccc(OC)c3OC)nnc2SC)cc1 -10.5%, CC(C)NC(=O)N1CC2(CCN(C(=O)c3cccn3C)CC2)C1 -24%, CC(=O)SC[C@@H](Cc1ccccc1)C(=O)NCC(=O)OCc1ccccc1 6.3%, COc1ncc2nc(-c3ccc(F)cc3)c(=O)n(C)c2n1 9.23%, Cc1noc(C)c1-c1nccc(N2CCNCC2)n1 -15.1%, C[N+](C)(C)CCCCCNCC12CC3CC(CC(C3)C1)C2 -14.4%, Cc1ncc2c(c1CNS(=O)(=O)N(C)C)CCN(C(=O)/C=C/c1ccccc1Cl)C2 -2.62%, CCCC(=O)N1CCCN(c2nc(N)c3cc(OC)c(OC)cc3n2)CC1 -7.03%, CCN[C@H]1C[C@H](C)S(=O)(=O)c2sc(S(N)(=O)=O)cc21 8.53%, Cc1cc(CNC(=O)c2cnn(-c3ncc4c(n3)-c3ccccc3CCC4)c2C2CC2)on1 -16.4%, Cn1cccc1C(=O)N1CCC[C@@]2(CCN(C(=O)Nc3cccc(C#N)c3)C2)C1 8.76%, COC(=O)N1CCC2(CC1)CN(C(=O)Nc1ccccc1)C2 -0.285%, COc1ccc(Oc2ncc3ncc(=O)n(-c4ccc(OC)cc4)c3n2)cc1 -8.14%, O=C1Cc2cc(CCN3CCN(c4nsc5ccccc45)CC3)c(Cl)cc2N1 -25.8% and -8.5%, CO[C@H]1C=CO[C@@]2(C)Oc3c(C)c(O)c4c(O)c(c5c(nc6cc(C)ccn65)c4c3C2=O)NC(=O)/C(C)=C\C=C[C@H](C)[C@H](O)[C@@H](C)[C@@H](O)[C@@H](C)[C@H](OC(C)=O)[C@@H]1C -43.9%, OC[C@H]1O[C@@H]2O[C@H]3[C@H](O)[C@@H](O)[C@@H](O[C@H]4[C@H](O)[C@@H](O)[C@@H](O[C@H]5[C@H](O)[C@@H](O)[C@@H](O[C@H]6[C@H](O)[C@@H](O)[C@@H](O[C@H]7[C@H](O)[C@@H](O)[C@@H](O[C@H]8[C@H](O)[C@@H](O)[C@@H](O[C@H]1[C@H](O)[C@H]2O)O[C@@H]8CO)O[C@@H]7CO)O[C@@H]6CO)O[C@@H]5CO)O[C@@H]4CO)O[C@@H]3CO -46.1%, O=c1c(-c2ccccc2)nc2cncnc2n1Cc1ccc(F)cc1 -7.11%, Cc1cc(C)n2nc(C(=O)NCC3Cc4cccc(-c5ccc(S(C)(=O)=O)cc5)c4O3)cc2n1 (stereo unspecified) 2.37%, COc1ccc(-c2cc(C)cc3c2OC(CNC(=O)/C=C/c2ccncc2)C3)nn1 (stereo unspecified) -19.9%, OCCN1CCN(Cc2ccc3c(c2)CN(Cc2cnc(-c4ccccc4)s2)CCO3)CC1 -15%, O=C(CS(=O)Cc1ccco1)NCC=CCOc1cc(CN2CCCCC2)ccn1 (stereo unspecified) -6.18%, CN(C)c1ccc(-c2cc(NCc3ccccc3)ncn2)cc1 -4.8%, O=c1cc(-c2ccc(O)c(O)c2)oc2cc(O)cc(O)c12 -3.66% and -35%, C=CC(C)=C[C@@]1(C)SC(=O)C(C)=C1O -18.4%, CC(=O)Nc1ccc(NC(=S)NC(=O)c2ccc(C(C)(C)C)cc2)cc1 -4.58%, O=C1CCN(Cc2ccc(O)cc2)CCN1[C@H](CO)Cc1ccccc1 -28.7%, O=C(c1cnn(-c2nccc(-c3ccccc3F)n2)c1C1CC1)N1CCCCC1c1cccnc1 (stereo unspecified) -1.84%, CN1CC(=O)NC1=N 7.23%, O=C1C(c2[nH]c3ccc(S(=O)(=O)O)cc3c2O)=Nc2ccc(S(=O)(=O)O)cc21 8.08% and -10.3% and -4.72%, CS(=O)(=O)Nc1cccc(-c2nc(N3CCOCC3)c3ccccc3n2)c1 -12.7%, Cc1c(C)c2c(c(C)c1OC(=O)CCC(=O)OCCO)CC[C@@](C)(CCC[C@H](C)CCC[C@H](C)CCCC(C)C)O2 -46.6%, CCOC(=O)Cc1cccc(-c2cc(CCCCCCc3ccc(O[C@H]4O[C@H](COC(C)=O)[C@@H](OC(C)=O)[C@H](OC(C)=O)[C@@H]4OC(C)=O)c(-c4cccc(CC(=O)OCC)c4)c3)ccc2O[C@H]2O[C@H](COC(C)=O)[C@@H](OC(C)=O)[C@H](OC(C)=O)[C@@H]2OC(C)=O)c1 -16%, O=S1(=O)CCOC[C@H](c2ccccc2)N1Cc1ccccc1 -18.9%, Cc1ccccc1-c1ccc2ncnc(N3CCOCC3)c2c1 -1.43%, CC(C)(C(=O)c1cccnc1)c1cccnc1 2.74%, C[C@@H](c1ncncc1F)C(O)(Cn1cncn1)c1ccc(F)cc1F (stereo partly specified) -1.04%, NCCCCNCCCN -3.68% and 0.0336% and -24.4%, Cc1cc[n+](C2CCCCC2)cc1 -33.2%, Nc1ncn([C@H]2C[C@H](O)[C@@H](CO)O2)c(=O)n1 -7.9%, Cc1ncc2c(c1O)COP(=O)(O)OC2 -19.6%, N#CCCn1c(=O)c(-c2ccc(Cl)cc2)nc2cnc(Nc3ccccc3)nc21 15.6%, CCOC(=O)c1ccc(-c2c(-c3ccc4c(c3)OCO4)noc2C)cc1F -5.12%, CNC(CC(=O)O)C(=O)O (stereo unspecified) -3.61%, O=C(c1csnn1)N1CCC[C@@]2(CCN(c3ccccc3)C2)C1 3.5%, O=C(c1ccco1)N1CCC2(CCN(Cc3cc(C(F)(F)F)cc(C(F)(F)F)c3)CC2)CC1 -16.1%, CC(=O)OCCNC(=O)c1cccnc1 0.295%, COc1cccc(-c2nccc(NCc3ccc(OC)cc3OC)n2)c1 8.43%, CN(C)c1ccc(O)c2c1C[C@H]1C[C@H]3[C@H](N(C)C)C(=O)C(C(N)=O)=C(O)[C@@]3(O)C(=O)C1=C2O -29% and 9.09% and -33%, CN1CCc2cccc3c2[C@H]1Cc1ccc(O)c(O)c1-3 -5.41% and -3.14%, COCc1c(C(=O)NC2CCCC2)cnn1-c1nccc(-c2cc(C)sc2C)n1 -14.3%, CCC(Cc1c(I)cc(I)c(N)c1I)C(=O)O (stereo unspecified) -14% and -5.33%, CCC(NC(C)C)C(O)c1ccc(O)c(O)c1 (stereo unspecified) -1.63% and -25.2%, CO[C@H]1[C@H](NC(=O)c2ccco2)c2ccccc2C12CCN(Cc1cccn1-c1ccccn1)CC2 -1.37%, CCCCC/C=C\CCC(=O)N[C@H]1[C@H](Oc2c3cc4cc2Oc2ccc(cc2Cl)[C@@H](O[C@@H]2O[C@H](CO)[C@@H](O)[C@H](O)[C@H]2NC(C)=O)[C@@H]2NC(=O)[C@H](NC(=O)[C@@H]4NC(=O)[C@H]4NC(=O)[C@@H](Cc5ccc(c(Cl)c5)O3)NC(=O)[C@H](N)c3ccc(O)c(c3)Oc3cc(O)cc4c3)c3ccc(O)c(c3)-c3c(O[C@H]4O[C@H](CO)[C@@H](O)[C@H](O)[C@@H]4O)cc(O)cc3[C@@H](C(=O)O)NC2=O)O[C@H](CO)[C@@H](O)[C@@H]1O -57%, COc1ncc2nc(-c3ccccc3)c(=O)n(Cc3cccs3)c2n1 -5.03%, COC(=O)[C@H]1C2CC3c4[nH]c5ccccc5c4CCN3CC2CC[C@@H]1O (stereo partly specified) 8.97%, COc1c2ccoc2nc2c(OC)c(O[C@@H]3O[C@H](C)[C@@H](O)[C@@H](O)[C@H]3O)ccc12 -7.65%, COc1cc(CNS(=O)(=O)CCl)cc(OC)c1OC -2.68%
